This passage reports binding signal results from PMC9911399, “Two distinct binding modes provide the RNA-binding protein RbFox with extraordinary sequence specificity”.

Numbering of substitutions follows the chain as printed; changes in the protein carry UniProt numbers. The list shows a part of the results.

T1: RBFOX1 RRM (Homo sapiens, UniProt Q9NWB1 109-208)
T1 sequence: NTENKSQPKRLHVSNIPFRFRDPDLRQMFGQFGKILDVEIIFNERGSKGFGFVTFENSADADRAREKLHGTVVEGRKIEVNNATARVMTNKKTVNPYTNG

B1: GAAAAUA (DNA:RNA)
RNA: GGGAGACCGGAAUUCAGAUUGUCCGAAAAUAUUAAAUCCCGUCGUAGCCACCA
DNA 1: CAATCTGAATTCCGGTCTCCC
DNA 2: TGGTGGCTACGACGGGATT
B2: CCAGAUG (DNA:RNA)
RNA: B1 RNA with G25C, A26C, A28G, A31G
DNA 1: CAATCTGAATTCCGGTCTCCC
DNA 2: TGGTGGCTACGACGGGATT
B3: GGUGCAC (DNA:RNA)
RNA: B1 RNA with A26G, A27U, A28G, A29C, U30A, A31C
DNA 1: CAATCTGAATTCCGGTCTCCC
DNA 2: TGGTGGCTACGACGGGATT
B4: AAUUCCC (DNA:RNA)
RNA: B1 RNA with G25A, A27U, A28U, A29C, U30C, A31C
DNA 1: CAATCTGAATTCCGGTCTCCC
DNA 2: TGGTGGCTACGACGGGATT
B5: UACGGUG (DNA:RNA)
RNA: B1 RNA with G25U, A27C, A28G, A29G, A31G
DNA 1: CAATCTGAATTCCGGTCTCCC
DNA 2: TGGTGGCTACGACGGGATT
B6: GAGAAAG (DNA:RNA)
RNA: B1 RNA with A27G, U30A, A31G
DNA 1: CAATCTGAATTCCGGTCTCCC
DNA 2: TGGTGGCTACGACGGGATT
B7: UCCGCUU (DNA:RNA)
RNA: B1 RNA with G25U, A26C, A27C, A28G, A29C, A31U
DNA 1: CAATCTGAATTCCGGTCTCCC
DNA 2: TGGTGGCTACGACGGGATT
B8: UUAAUGC (DNA:RNA)
RNA: B1 RNA with G25U, A26U, A29U, U30G, A31C
DNA 1: CAATCTGAATTCCGGTCTCCC
DNA 2: TGGTGGCTACGACGGGATT
B9: AGGAACU (DNA:RNA)
RNA: B1 RNA with G25A, A26G, A27G, U30C, A31U
DNA 1: CAATCTGAATTCCGGTCTCCC
DNA 2: TGGTGGCTACGACGGGATT
B10: UGCCAUC (DNA:RNA)
RNA: B1 RNA with G25U, A26G, A27C, A28C, A31C
DNA 1: CAATCTGAATTCCGGTCTCCC
DNA 2: TGGTGGCTACGACGGGATT
B11: AGGGGCG (DNA:RNA)
RNA: GGGAGACCGGAAUUCAGAUUGUCCAGGGGCGUUAAAUCCCGUCGUAGCCACCA
DNA 1: CAATCTGAATTCCGGTCTCCC
DNA 2: TGGTGGCTACGACGGGATT
B12: GGGUGUU (DNA:RNA)
RNA: B11 RNA with A25G, G28U, C30U, G31U
DNA 1: CAATCTGAATTCCGGTCTCCC
DNA 2: TGGTGGCTACGACGGGATT
B13: GAUCCCA (DNA:RNA)
RNA: B1 RNA with A27U, A28C, A29C, U30C
DNA 1: CAATCTGAATTCCGGTCTCCC
DNA 2: TGGTGGCTACGACGGGATT
B14: GUACCGU (DNA:RNA)
RNA: B1 RNA with A26U, A28C, A29C, U30G, A31U
DNA 1: CAATCTGAATTCCGGTCTCCC
DNA 2: TGGTGGCTACGACGGGATT
B15: GAAUAGA (DNA:RNA)
RNA: B1 RNA with A28U, U30G
DNA 1: CAATCTGAATTCCGGTCTCCC
DNA 2: TGGTGGCTACGACGGGATT
B16: CUACGAU (DNA:RNA)
RNA: B11 RNA with A25C, G26U, G27A, G28C, C30A, G31U
DNA 1: CAATCTGAATTCCGGTCTCCC
DNA 2: TGGTGGCTACGACGGGATT
B17: GAAUUAU (DNA:RNA)
RNA: B1 RNA with A28U, A29U, U30A, A31U
DNA 1: CAATCTGAATTCCGGTCTCCC
DNA 2: TGGTGGCTACGACGGGATT
B18: GUUCGCC (DNA:RNA)
RNA: B11 RNA with A25G, G26U, G27U, G28C, G31C
DNA 1: CAATCTGAATTCCGGTCTCCC
DNA 2: TGGTGGCTACGACGGGATT
B19: GCCUCGC (DNA:RNA)
RNA: B1 RNA with A26C, A27C, A28U, A29C, U30G, A31C
DNA 1: CAATCTGAATTCCGGTCTCCC
DNA 2: TGGTGGCTACGACGGGATT
B20: ACUAAUC (DNA:RNA)
RNA: B1 RNA with G25A, A26C, A27U, A31C
DNA 1: CAATCTGAATTCCGGTCTCCC
DNA 2: TGGTGGCTACGACGGGATT
B21: GCUAGGU (DNA:RNA)
RNA: B1 RNA with A26C, A27U, A29G, U30G, A31U
DNA 1: CAATCTGAATTCCGGTCTCCC
DNA 2: TGGTGGCTACGACGGGATT
B22: ACUAUAU (DNA:RNA)
RNA: B11 RNA with G26C, G27U, G28A, G29U, C30A, G31U
DNA 1: CAATCTGAATTCCGGTCTCCC
DNA 2: TGGTGGCTACGACGGGATT
B23: UGCGCCU (DNA:RNA)
RNA: B11 RNA with A25U, G27C, G29C, G31U
DNA 1: CAATCTGAATTCCGGTCTCCC
DNA 2: TGGTGGCTACGACGGGATT
B24: UGGAUGU (DNA:RNA)
RNA: B11 RNA with A25U, G28A, G29U, C30G, G31U
DNA 1: CAATCTGAATTCCGGTCTCCC
DNA 2: TGGTGGCTACGACGGGATT
B25: UGGUGGU (DNA:RNA)
RNA: B11 RNA with A25U, G28U, C30G, G31U
DNA 1: CAATCTGAATTCCGGTCTCCC
DNA 2: TGGTGGCTACGACGGGATT
B26: AGUUGGG (DNA:RNA)
RNA: B11 RNA with G27U, G28U, C30G
DNA 1: CAATCTGAATTCCGGTCTCCC
DNA 2: TGGTGGCTACGACGGGATT
B27: ACGCCUC (DNA:RNA)
RNA: B11 RNA with G26C, G28C, G29C, C30U, G31C
DNA 1: CAATCTGAATTCCGGTCTCCC
DNA 2: TGGTGGCTACGACGGGATT
B28: ACUAGAG (DNA:RNA)
RNA: B11 RNA with G26C, G27U, G28A, C30A
DNA 1: CAATCTGAATTCCGGTCTCCC
DNA 2: TGGTGGCTACGACGGGATT
B29: AUACCAA (DNA:RNA)
RNA: B1 RNA with G25A, A26U, A28C, A29C, U30A
DNA 1: CAATCTGAATTCCGGTCTCCC
DNA 2: TGGTGGCTACGACGGGATT
B30: AUCCCUG (DNA:RNA)
RNA: B11 RNA with G26U, G27C, G28C, G29C, C30U
DNA 1: CAATCTGAATTCCGGTCTCCC
DNA 2: TGGTGGCTACGACGGGATT
B31: GGGAGCA (DNA:RNA)
RNA: B11 RNA with A25G, G28A, G31A
DNA 1: CAATCTGAATTCCGGTCTCCC
DNA 2: TGGTGGCTACGACGGGATT

This assay concerns the target T1, RBFOX1 RRM. Put plainly: EMSA; HiTS-Eq, 1 nM pool, 10 min; buffer printed only for the single-RNA assays: 10 mM Tris pH 7.5, 150 mM NaCl, 3.4 mM EDTA, 0.001% NP-40, 30 C. Particulars: tags: His6 N-terminal (pET28a); label: 5' 32P. In outline: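 Relative association constants, normalised to the cognate motif, were derived by comparing read counts of each RNA species with those of the control reaction. The RNA sequenced was the free fraction, separated by 8% native PAGE after a 10 min equilibration in 50 µL of 1 nM 5′-radiolabelled RNA (7 randomized nucleotides) with increasing concentrations of purified wild-type or mutant RbFox RRM.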
In general terms: Mobility shift assays separate free from complexed probe on a gel.
B1: the binding signal is 0.00151 KA relative to UGCAUGU. To B2 belongs 0.00679 KA relative to UGCAUGU; to B3, 0.0124 KA relative to UGCAUGU; to B4, 0.00155 KA relative to UGCAUGU. Turning to B5, the binding signal was 0.0204 KA relative to UGCAUGU. B6: the binding signal is 0.0113 KA relative to UGCAUGU.

B7: the binding signal is 0.0108 KA relative to UGCAUGU.

Turning to B8, the binding signal is 0.0138 KA relative to UGCAUGU.

Take B9: the binding signal is 0.0115 KA relative to UGCAUGU. On to B10, for which the binding signal is 0.016 KA relative to UGCAUGU. To B11 belongs 0.0278 KA relative to UGCAUGU; to B12, 0.0233 KA relative to UGCAUGU; to B13, 0.00662 KA relative to UGCAUGU.

For B14, the binding signal is 0.0109 KA relative to UGCAUGU. Regarding B15, the binding signal was 0.00829 KA relative to UGCAUGU. For B16 the value was 0.00513 KA relative to UGCAUGU. Turning to B17, the binding signal was 0.00618 KA relative to UGCAUGU. Regarding B18, the binding signal is 0.0212 KA relative to UGCAUGU. Consider B19, for which the binding signal was 0.011 KA relative to UGCAUGU.

On to B20, for which the binding signal was 0.00236 KA relative to UGCAUGU. On to B21, for which the binding signal was 0.0175 KA relative to UGCAUGU. B22: the binding signal is 0.000857 KA relative to UGCAUGU. Turning to B23, the binding signal was 0.0169 KA relative to UGCAUGU. For B24, the binding signal is 0.0494 KA relative to UGCAUGU. Consider B25, for which the binding signal is 0.022 KA relative to UGCAUGU. To B26 belongs 0.00622 KA relative to UGCAUGU; to B27, 0.00749 KA relative to UGCAUGU; to B28, 0.00827 KA relative to UGCAUGU. On to B29, for which the binding signal was 0.000392 KA relative to UGCAUGU. For B30 the value was 0.00611 KA relative to UGCAUGU. With B31, the binding signal is 0.0305 KA relative to UGCAUGU.
